{"source": "a compilation of properties of binary mixtures (doi:10.1039/c7cp04078d)", "assay": "xn = mol fraction of the nth substance listed", "settings": "303.15 K, 100 kPa", "note": "Some of these densities may be calculated back from excess volumes."}
{"smiles": "CC(=O)[O-].CCCC[N+](CCCC)(CCCC)CCCC", "note": "+ CCCCN", "values": [{"measurement": "mass density", "setting": "x2 = 0", "value": 958, "unit": "kg/m3"}, {"measurement": "mass density", "setting": "x2 = 0.1", "value": 943, "unit": "kg/m3"}, {"measurement": "mass density", "setting": "x2 = 0.33", "value": 903, "unit": "kg/m3"}, {"measurement": "mass density", "setting": "x2 = 0.5", "value": 871, "unit": "kg/m3"}, {"measurement": "mass density", "setting": "x2 = 0.67", "value": 831, "unit": "kg/m3"}, {"measurement": "mass density", "setting": "x2 = 0.8", "value": 794, "unit": "kg/m3"}, {"measurement": "mass density", "setting": "x2 = 0.9", "value": 764, "unit": "kg/m3"}]}
{"smiles": "CC(=O)[O-].CCCC[N+](CCCC)(CCCC)CCCC", "note": "+ CC(=O)O", "values": [{"measurement": "mass density", "setting": "x2 = 0", "value": 958, "unit": "kg/m3"}, {"measurement": "mass density", "setting": "x2 = 0.1", "value": 965, "unit": "kg/m3"}, {"measurement": "mass density", "setting": "x2 = 0.2", "value": 978, "unit": "kg/m3"}, {"measurement": "mass density", "setting": "x2 = 0.33", "value": 993, "unit": "kg/m3"}, {"measurement": "mass density", "setting": "x2 = 0.5", "value": 1017, "unit": "kg/m3"}, {"measurement": "mass density", "setting": "x2 = 0.67", "value": 1035, "unit": "kg/m3"}, {"measurement": "mass density", "setting": "x2 = 0.8", "value": 1042, "unit": "kg/m3"}, {"measurement": "mass density", "setting": "x2 = 0.9", "value": 1041, "unit": "kg/m3"}]}
